Experimental data: the supplement of paper PMC10369915
The list shows a part of the results. Cut-off read from the data, not from the text of the source: active = 3.2 or more and inactive = the rest. Most of these values are background signal.

How the values were obtained:
Assay in all cases: enrichment score (SH2-bound / input frequency) (ratio); bacterial display of known human phosphotyrosine sites (pTyr-Var adds point mutants) read by sequencing; higher = stronger binding; tyrosines were phosphorylated by kinases first
SHP2 C-SH2 domain E139D = molecular target: SHP2 C-SH2 domain E139D
[1] = molecular target: SHP2 C-SH2 domain wild-type
SHP2 N-SH2 domain L43F = molecular target: SHP2 N-SH2 domain L43F
SHP2 N-SH2 domain T42A = molecular target: SHP2 N-SH2 domain T42A
SHP2 N-SH2 domain T52S = molecular target: SHP2 N-SH2 domain T52S
[2] = molecular target: SHP2 N-SH2 domain wild-type

Measured: enrichment score
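Note: displayed peptides selected on beads carrying the immobilized SH2 domain, with library peptides lacking any tyrosine serving as negative controls.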

NEEGKYGYVLRSYLA [FYB_HUMAN_757]
inactive: SHP2 C-SH2 domain E139D; peptide library: Human pTyr 0.944 | [1]; peptide library: Human pTyr 1.03 | SHP2 N-SH2 domain L43F; peptide library: Human pTyr 1.07 | SHP2 N-SH2 domain T42A; peptide library: Human pTyr 1.28 | SHP2 N-SH2 domain T52S; peptide library: Human pTyr 1.16 | [2]; peptide library: Human pTyr 1.41

DVSLDRGYTSDSEVY [GBF1_HUMAN_1316]
inactive: SHP2 C-SH2 domain E139D; peptide library: Human pTyr 0.575 | [1]; peptide library: Human pTyr 0.48 | SHP2 N-SH2 domain L43F; peptide library: Human pTyr 0.644 | SHP2 N-SH2 domain T42A; peptide library: Human pTyr 0.602 | SHP2 N-SH2 domain T52S; peptide library: Human pTyr 0.619 | [2]; peptide library: Human pTyr 0.645

PVGVLYEVKVY [PTS_Y128_K129E]
inactive: SHP2 C-SH2 domain E139D; peptide library: pTyr-Var 1.39 | [1]; peptide library: pTyr-Var 1.38 | SHP2 N-SH2 domain L43F; peptide library: pTyr-Var 1.52 | SHP2 N-SH2 domain T42A; peptide library: pTyr-Var 0.956 | SHP2 N-SH2 domain T52S; peptide library: pTyr-Var 1.56 | [2]; peptide library: pTyr-Var 1.79

SETTKGAYSLSIRDW [FYN_HUMAN_185]
inactive: SHP2 C-SH2 domain E139D; peptide library: Human pTyr 0.947 | [1]; peptide library: Human pTyr 0.71 | SHP2 N-SH2 domain L43F; peptide library: Human pTyr 0.862 | SHP2 N-SH2 domain T42A; peptide library: Human pTyr 0.72 | SHP2 N-SH2 domain T52S; peptide library: Human pTyr 0.937 | [2]; peptide library: Human pTyr 0.789

TSLNSNDYGAGGQKR [FUBP1_HUMAN_58_YA]
inactive: SHP2 C-SH2 domain E139D; peptide library: Human pTyr 1.43 | [1]; peptide library: Human pTyr 0.754 | SHP2 N-SH2 domain L43F; peptide library: Human pTyr 0.926 | SHP2 N-SH2 domain T42A; peptide library: Human pTyr 0.896 | SHP2 N-SH2 domain T52S; peptide library: Human pTyr 0.743 | [2]; peptide library: Human pTyr 0.998

GGQEDYDRLRP [RAC3_Y64_A59G]
inactive: SHP2 C-SH2 domain E139D; peptide library: pTyr-Var 0.538 | [1]; peptide library: pTyr-Var 0.535 | SHP2 N-SH2 domain L43F; peptide library: pTyr-Var 0.481 | SHP2 N-SH2 domain T42A; peptide library: pTyr-Var 0.467 | SHP2 N-SH2 domain T52S; peptide library: pTyr-Var 0.457 | [2]; peptide library: pTyr-Var 0.643

GACGGYCSVLG [RAB18_Y202]
inactive: SHP2 C-SH2 domain E139D; peptide library: pTyr-Var 0.797 | [1]; peptide library: pTyr-Var 0.773 | SHP2 N-SH2 domain L43F; peptide library: pTyr-Var 0.784 | SHP2 N-SH2 domain T42A; peptide library: pTyr-Var 0.8 | SHP2 N-SH2 domain T52S; peptide library: pTyr-Var 0.881 | [2]; peptide library: pTyr-Var 0.608

KSIEEYLKLVG [RASAL2_Y381]
inactive: SHP2 C-SH2 domain E139D; peptide library: pTyr-Var 0.742 | [1]; peptide library: pTyr-Var 0.778 | SHP2 N-SH2 domain L43F; peptide library: pTyr-Var 1.14 | SHP2 N-SH2 domain T42A; peptide library: pTyr-Var 1.03 | SHP2 N-SH2 domain T52S; peptide library: pTyr-Var 0.96 | [2]; peptide library: pTyr-Var 0.805

EDLLCFAYQVAKGME [FLT3_HUMAN_793]
inactive: SHP2 C-SH2 domain E139D; peptide library: Human pTyr 1.75 | [1]; peptide library: Human pTyr 1.4 | SHP2 N-SH2 domain L43F; peptide library: Human pTyr 1.4 | SHP2 N-SH2 domain T42A; peptide library: Human pTyr 1.42 | SHP2 N-SH2 domain T52S; peptide library: Human pTyr 1.48 | [2]; peptide library: Human pTyr 1.64

FTATEPQYQPGENLG [FYN_HUMAN_531]
inactive: SHP2 C-SH2 domain E139D; peptide library: Human pTyr 0.619 | [1]; peptide library: Human pTyr 0.514 | SHP2 N-SH2 domain L43F; peptide library: Human pTyr 0.568 | SHP2 N-SH2 domain T42A; peptide library: Human pTyr 0.579 | SHP2 N-SH2 domain T52S; peptide library: Human pTyr 0.523 | [2]; peptide library: Human pTyr 0.474

TGQEDYDRLRP [RAC1_Y64_A59T]
inactive: SHP2 C-SH2 domain E139D; peptide library: pTyr-Var 0.764 | [1]; peptide library: pTyr-Var 0.477 | SHP2 N-SH2 domain L43F; peptide library: pTyr-Var 0.509 | SHP2 N-SH2 domain T42A; peptide library: pTyr-Var 0.565 | SHP2 N-SH2 domain T52S; peptide library: pTyr-Var 0.601 | [2]; peptide library: pTyr-Var 0.616

GKPADAVYGQKEIHR [G3BP1_HUMAN_56]
inactive: SHP2 C-SH2 domain E139D; peptide library: Human pTyr 1.13 | [1]; peptide library: Human pTyr 1.07 | SHP2 N-SH2 domain L43F; peptide library: Human pTyr 0.981 | SHP2 N-SH2 domain T42A; peptide library: Human pTyr 1.08 | SHP2 N-SH2 domain T52S; peptide library: Human pTyr 1.21 | [2]; peptide library: Human pTyr 1.08

GRTARGSYGYIKTTA [FYB_HUMAN_559]
inactive: SHP2 C-SH2 domain E139D; peptide library: Human pTyr 1.3 | [1]; peptide library: Human pTyr 1.3 | SHP2 N-SH2 domain L43F; peptide library: Human pTyr 1.22 | SHP2 N-SH2 domain T42A; peptide library: Human pTyr 1.17 | SHP2 N-SH2 domain T52S; peptide library: Human pTyr 1.15 | [2]; peptide library: Human pTyr 1.46

LPVHFYGHVEH [PYGM_Y204]
inactive: SHP2 C-SH2 domain E139D; peptide library: pTyr-Var 1.29 | [1]; peptide library: pTyr-Var 1.51 | SHP2 N-SH2 domain L43F; peptide library: pTyr-Var 1.28 | SHP2 N-SH2 domain T42A; peptide library: pTyr-Var 1.45 | SHP2 N-SH2 domain T52S; peptide library: pTyr-Var 1.64 | [2]; peptide library: pTyr-Var 1.64

YDASSIQYRKAGLPR [GBRB2_HUMAN_441]
inactive: SHP2 C-SH2 domain E139D; peptide library: Human pTyr 0.75 | [1]; peptide library: Human pTyr 0.666 | SHP2 N-SH2 domain L43F; peptide library: Human pTyr 0.729 | SHP2 N-SH2 domain T42A; peptide library: Human pTyr 0.825 | SHP2 N-SH2 domain T52S; peptide library: Human pTyr 0.819 | [2]; peptide library: Human pTyr 0.605

YYRQQAAYYAQTSPQ [FUBP1_HUMAN_625]
inactive: SHP2 C-SH2 domain E139D; peptide library: Human pTyr 0.48 | [1]; peptide library: Human pTyr 0.709 | SHP2 N-SH2 domain L43F; peptide library: Human pTyr 0.647 | SHP2 N-SH2 domain T42A; peptide library: Human pTyr 0.7 | SHP2 N-SH2 domain T52S; peptide library: Human pTyr 0.603 | [2]; peptide library: Human pTyr 0.603

DIMSDSNYVVRGNAR [FLT3_HUMAN_842]
inactive: SHP2 C-SH2 domain E139D; peptide library: Human pTyr 0.554 | [1]; peptide library: Human pTyr 0.471 | SHP2 N-SH2 domain L43F; peptide library: Human pTyr 0.523 | SHP2 N-SH2 domain T42A; peptide library: Human pTyr 0.707 | SHP2 N-SH2 domain T52S; peptide library: Human pTyr 0.56 | [2]; peptide library: Human pTyr 0.457

ENRKFYKDLKE [PURA_Y156_M157K_YF]
inactive: SHP2 C-SH2 domain E139D; peptide library: pTyr-Var 0.845 | [1]; peptide library: pTyr-Var 0.511 | SHP2 N-SH2 domain L43F; peptide library: pTyr-Var 0.564 | SHP2 N-SH2 domain T42A; peptide library: pTyr-Var 0.666 | SHP2 N-SH2 domain T52S; peptide library: pTyr-Var 0.657 | [2]; peptide library: pTyr-Var 0.733

VPVDPATYGQFAGGD [GELS_HUMAN_465_YA]
inactive: SHP2 C-SH2 domain E139D; peptide library: Human pTyr 0.583 | [1]; peptide library: Human pTyr 0.636 | SHP2 N-SH2 domain L43F; peptide library: Human pTyr 0.514 | SHP2 N-SH2 domain T42A; peptide library: Human pTyr 0.552 | SHP2 N-SH2 domain T52S; peptide library: Human pTyr 0.62 | [2]; peptide library: Human pTyr 0.567
